# Measured values: the supplement of paper PMC3334620
# Whole data set: some 33,000 sequences, median “E-score (-0.5 to 0.5)” near -0.056, cut for the highest 2% near 0.38. This is one part of the list.
# Target: Stb4 (UniProt P50104)
# Assay: PBM E-score (8-mer binding enrichment) (E-score (-0.5 to 0.5)); higher = stronger / more preferred TF binding; most listed sequences are background and not binding sites
# Conditions: protein concentration: 200 nM; construct: GST-DNA-binding domain
# How it was run: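 E-scores (a modified Wilcoxon-Mann-Whitney statistic) were assigned by the Universal PBM Analysis Suite to every ungapped eight-base word pooled with its reverse complement. The input came from universal all-10-mer Agilent arrays made double-stranded by primer extension and probed with GST-tagged yeast transcription factors at about 100-200 nM. Fluorescent anti-GST detected bound protein, and masliner normalised the scans.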
row,Sequence,PBM E-score
1,GAAAATAC,0.154
2,CCTTGTGC,-0.237
3,CGCCGAGC,0.39
4,CGTAGACA,-0.0783
5,TGCCCCAA,-0.144
6,GAGGTTAC,-0.00275
7,CCGTAAAG,0.122
8,AAATCATG,-0.27
9,CTGGTGGA,-0.243
10,GGCGCCCA,-0.134
11,CTAAATGC,0.0335
12,GGGGGAAA,0.11
13,AAAGGGAA,-0.131
14,AACGAATG,-0.142
15,CAGTATAC,-0.151
16,CGGGGTTC,0.186
17,CAAATACG,-0.135
18,CCACTACC,0.101
19,GGAGCGCC,0.147
20,CCTCCGAC,0.209
21,CCCGAGCC,0.438
22,CTAACACA,0.061
23,ATGTTAGA,-0.197
24,CTATTATA,0.0451
25,AAGCACTA,-0.125

row,Sequence,PBM E-score
1,TATTGGCA,-0.0668
2,CACTAGGA,-0.206
3,GCTCCTTA,0.0602
4,AACTACGA,-0.178
5,TCGCCCCA,-0.285
6,ATCACTCG,-0.0139
7,CCAGGATC,0.0122
8,GTTTTAGA,-0.0792
9,CCTAAAGG,-0.173
10,AGCTGCAG,-0.17
11,AGCAGGTC,-0.00878
12,AGACTGCA,-0.275
13,AACAGGAA,-0.219
14,CATCTGTC,0.0312
15,CCCAAATC,-0.0999
16,CCAGTCCA,-0.0635
17,ACTCGACG,-0.0414
18,CCTCGGAC,0.321
19,GCCTCCGC,0.0993
20,GTCGCACA,-0.114
21,GCGCCAAA,0.00856
22,GCCGTCCC,0.161
23,CCGATTAA,0.274
24,AATACTTC,-0.0258
25,CGTAACCC,0.0308

row,Sequence,PBM E-score
1,CATTGTCC,0.00398
2,ACATCGTC,-0.231
3,AGTAAACG,-0.0112
4,CAAATCAC,-0.013
5,AGATGCCT,-0.287
6,CGATGAAA,-0.0493
7,CATATGGG,-0.0619
8,TATCTGAA,0.0389
9,CTCGACCC,0.141
10,AAGACGGA,0.236
11,ATAGGAGC,-0.214
12,AATTTCGA,-0.152
13,GAAGAGAA,0.0491
14,CTAGACAC,-0.2
15,GTAGATTA,0.139
16,TGCAGGAA,-0.0762
17,AAAAACCG,0.117
18,ATAGGCTA,-0.295
19,CCTAATTC,-0.0372
20,CGGTGCAG,0.0654
21,GGACCCCA,-0.0727
22,ACCTCTAC,-0.0322
23,GAGAGGTA,-0.215
24,CAACTTTC,0.224
25,GTTAACAA,0.0513

row,Sequence,PBM E-score
1,AACAGTTC,-0.0211
2,CTCTTTGC,-0.0702
3,ACCATAGC,-0.123
4,ACACGTTA,-0.339
5,AAAAATTC,0.0047
6,AAAAGCAC,0.055
7,CACCTCCA,-0.167
8,CACGTGCG,-0.124
9,TAACAACA,0.0773
10,ATTAGCCG,0.4
11,CTTGTTGC,-0.165
12,AAGCCTGC,-0.0224
13,CACGTAAG,-0.0761
14,CCGCTGTC,0.00261
15,AAATTTGC,-0.0428
16,AAATACTA,-0.12
17,ATTGACAA,-0.143
18,CCAGCAAA,-0.18
19,TATACCGA,0.383
20,CAATAGGG,-0.163
21,ACCTAGCG,-0.0182
22,ATAGCTGG,-0.0164
23,AGGGGCGG,0.33
24,ACATTGTC,0.193
25,AAACCCAC,-0.0362

row,Sequence,PBM E-score
1,CGAGTCCC,0.313
2,CATGGGTA,0.115
3,ATAATCAG,-0.104
4,CGTATGAC,-0.0105
5,GTCTGGTA,-0.268
6,GAGGACCC,0.117
7,GATGAAGC,0.0567
8,TCTACCCA,0.0139
9,GGCTCGAA,-0.0314
10,CCACGGGC,0.101
11,ATACCAGG,-0.108
12,AGATTAAC,-0.0576
13,GTTTAAGA,0.0225
14,ACGCAGAA,-0.168
15,ACAATTGA,-0.11
16,ACCGCAGC,-0.0166
17,AGTTTGAA,-0.0107
18,CTCTCAGC,-0.362
19,CCCGCTCG,0.212
20,AGCATGCA,-0.235
21,CACTAATA,-0.0594
22,AGACACCT,-0.117
23,CTCAAGAG,-0.265
24,AGCTCTAA,-0.0842
25,CCTTACCG,0.247

row,Sequence,PBM E-score
1,ATATTGTA,-0.08
2,ATGTAGAC,-0.166
3,TAGGATGA,-0.0397
4,GTATTGTA,0.122
5,ATAGTTAG,-0.00201
6,CAATGATC,-0.126
7,ATTGGACA,0.0311
8,ATAGTACG,-0.0687
9,CATCGATG,-0.133
10,AAGCCAAG,-0.0879
11,CTGCGACA,-0.0899
12,GGGCTACC,-0.148
13,CACACGGA,0.276
14,CAATCCTC,-0.179
15,ACGAATCA,-0.0567
16,CGGCCATC,0.0852
17,AATATGCT,0.0215
18,AGAAGTTG,-0.172
19,AGTGGGGG,-0.192
20,ATGGAGCC,-0.219
21,TAATGTGA,-0.0882
22,AATACTGT,0.0455
23,AACCTGAT,-0.16
24,CACCGGCG,0.165
25,GGCAGAGA,0.0584

row,Sequence,PBM E-score
1,AATATAAG,0.0541
2,CCAGCTTA,-0.055
3,TGACGCAA,-0.208
4,AACTGCAT,-0.213
5,AACTCCTA,-0.106
6,AGATATTG,-0.0198
7,GAGGACTC,-0.232
8,CCGTTTGC,0.108
9,GTAGTTCA,0.0756
10,CAAGGCAC,-0.177
11,CTGTGGAC,-0.205
12,CCCCGGGC,0.192
13,GTACCTGA,-0.0644
14,TATAAGCA,-0.024
15,AAGCACTG,-0.124
16,CAGTTTTA,-0.149
17,ACTAAAGA,-0.154
18,ACCCTAGA,-0.157
19,CTTACCGC,0.119
20,AGACGCAG,-0.191
21,ACTCAACA,-0.164
22,GGACCGCA,0.0668
